{"source": "paper PMC4336329", "about": "(PLoS ONE, 2015)", "note": "The whole screen tested about 310,000 compounds, of which about 2,200 (0.71%) showed an effect of 50% or more. The effect is printed as a negative number. The list shows a part of the results.", "data": [{"biological_target": "human ether-à-go-go-related gene (hERG) potassium channel (human, UniProt Q12809)", "sequence (Q12809 whole entry, looked up)": "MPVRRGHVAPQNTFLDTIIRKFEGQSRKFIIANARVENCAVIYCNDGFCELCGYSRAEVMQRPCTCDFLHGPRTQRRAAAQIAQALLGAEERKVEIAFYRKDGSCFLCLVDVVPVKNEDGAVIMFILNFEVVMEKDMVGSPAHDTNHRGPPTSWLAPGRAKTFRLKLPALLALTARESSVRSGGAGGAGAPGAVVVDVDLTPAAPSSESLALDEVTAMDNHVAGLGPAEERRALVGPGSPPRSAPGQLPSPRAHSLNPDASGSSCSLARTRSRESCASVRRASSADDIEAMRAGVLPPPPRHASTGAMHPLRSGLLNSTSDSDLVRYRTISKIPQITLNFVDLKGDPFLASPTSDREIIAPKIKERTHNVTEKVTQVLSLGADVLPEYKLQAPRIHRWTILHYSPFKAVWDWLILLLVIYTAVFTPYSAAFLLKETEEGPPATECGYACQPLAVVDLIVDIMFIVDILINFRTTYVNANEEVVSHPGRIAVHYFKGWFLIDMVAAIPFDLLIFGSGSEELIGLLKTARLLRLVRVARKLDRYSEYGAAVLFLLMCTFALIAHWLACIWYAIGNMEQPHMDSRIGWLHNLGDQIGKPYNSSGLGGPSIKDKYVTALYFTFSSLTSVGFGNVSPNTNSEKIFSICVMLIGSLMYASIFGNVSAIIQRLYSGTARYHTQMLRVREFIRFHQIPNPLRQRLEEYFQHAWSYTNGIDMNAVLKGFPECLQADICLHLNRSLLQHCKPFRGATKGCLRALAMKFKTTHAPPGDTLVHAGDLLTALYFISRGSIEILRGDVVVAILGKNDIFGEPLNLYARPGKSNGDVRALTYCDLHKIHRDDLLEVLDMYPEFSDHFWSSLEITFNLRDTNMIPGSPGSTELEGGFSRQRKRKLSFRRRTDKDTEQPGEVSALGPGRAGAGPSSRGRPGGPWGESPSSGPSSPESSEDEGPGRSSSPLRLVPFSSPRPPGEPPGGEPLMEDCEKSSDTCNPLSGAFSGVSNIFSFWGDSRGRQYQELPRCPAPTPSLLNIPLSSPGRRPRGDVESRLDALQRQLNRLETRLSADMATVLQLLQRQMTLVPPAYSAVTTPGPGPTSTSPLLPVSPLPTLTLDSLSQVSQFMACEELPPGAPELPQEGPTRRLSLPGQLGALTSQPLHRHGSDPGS", "test": "primary screen, population patch clamp on CHO cells stably expressing hERG", "units": {"hERG current change (%, negative = inhibition) at 1uM": "%"}, "values": [{"smiles": "CC(C)(C)c1ccc(S(=O)(=O)N2CCCC2C(=O)NC2=NCCS2)cc1", "note": "(stereo not shown)", "hERG current change (%, negative = inhibition) at 1uM": 6.31}, {"smiles": "Cc1nc(NCCc2ccc(S(N)(=O)=O)cc2)c2c3c(sc2n1)CCC3", "hERG current change (%, negative = inhibition) at 1uM": 11.8}, {"smiles": "O=C(OCc1cn(-c2ccc(Cl)cc2)nn1)c1ccccc1", "hERG current change (%, negative = inhibition) at 1uM": 8.04}, {"smiles": "COc1ccc(CCNC(=O)COC(=O)c2ccc[nH]c2=O)cc1", "hERG current change (%, negative = inhibition) at 1uM": 4.6}, {"smiles": "Cc1[nH]c2ccccc2c1/C=N\\NC(=O)c1ccco1", "hERG current change (%, negative = inhibition) at 1uM": 12.5}, {"smiles": "O=C(CN1C(=O)CCC1=O)Nc1nc2c(F)cc(F)cc2s1", "hERG current change (%, negative = inhibition) at 1uM": 4.42}, {"smiles": "CCc1nn(CCCC(=O)Nc2ccc(C)c(C)c2)c(=O)c2cc3occc3n12", "hERG current change (%, negative = inhibition) at 1uM": 9.92}, {"smiles": "CC1(C)C2CCC(C2)C1(C)NC(=O)CNC1CCCCC1.Cl", "note": "(stereo not shown)", "hERG current change (%, negative = inhibition) at 1uM": 20.8}, {"smiles": "O=C(NCc1ccco1)c1nnc(Cc2ccc(Cl)cc2)o1", "hERG current change (%, negative = inhibition) at 1uM": 7.12}, {"smiles": "Cc1c(Cl)cccc1NC(=O)c1cc(-c2ccccc2O)n[nH]1", "hERG current change (%, negative = inhibition) at 1uM": -4.4}, {"smiles": "O=C1CC(c2ccccc2F)c2c(c3ccccc3[nH]c2=O)O1", "note": "(stereo not shown)", "hERG current change (%, negative = inhibition) at 1uM": 19.8}, {"smiles": "CCOCCc1nnc(NC(=O)C(C)Oc2ccccc2)s1", "note": "(stereo not shown)", "hERG current change (%, negative = inhibition) at 1uM": 9.57}, {"smiles": "O=C(CSc1nnnn1C1CCCC1)NCc1ccccc1", "hERG current change (%, negative = inhibition) at 1uM": 1.91}, {"smiles": "CCNc1nc(CN2CCOCC2)nc2sc3c(c12)CCC3", "hERG current change (%, negative = inhibition) at 1uM": 3.05}, {"smiles": "CCOc1ccccc1N1CCN(C(=S)NCc2ccccc2)CC1", "hERG current change (%, negative = inhibition) at 1uM": 11}, {"smiles": "C=CCOC(=O)C(C#N)c1nc2ccccc2nc1N1CCCC1", "note": "(stereo not shown)", "hERG current change (%, negative = inhibition) at 1uM": 16.4}, {"smiles": "O=C(NNS(=O)(=O)c1ccccc1[N+](=O)[O-])c1ccncc1", "hERG current change (%, negative = inhibition) at 1uM": 7.49}, {"smiles": "Cc1ccc2nc(-c3ccncc3)cc(C(=O)N3CCOCC3)c2c1", "hERG current change (%, negative = inhibition) at 1uM": 7.66}, {"smiles": "CCOc1ccc(/C=N/Nc2ccc(C(F)(F)F)cc2[N+](=O)[O-])cc1O", "hERG current change (%, negative = inhibition) at 1uM": -1.39}, {"smiles": "Cc1ccc(C(=O)Oc2ccccc2N2C(=O)C3CCCCC3C2=O)cc1", "note": "(stereo not shown)", "hERG current change (%, negative = inhibition) at 1uM": -1.27}, {"smiles": "CC/C(=C/c1sc2ccc(C)cc2[n+]1CCO)SC.COS(=O)(=O)[O-]", "hERG current change (%, negative = inhibition) at 1uM": 14.9}, {"smiles": "CCCOc1cccc(-c2cc(C(=O)N/N=C/c3cccnc3)c3ccccc3n2)c1", "hERG current change (%, negative = inhibition) at 1uM": 16.6}, {"smiles": "CCCCN(C(=O)Cc1ccc2c(c1)OCCO2)c1c(N)n(CCC)c(=O)[nH]c1=O", "hERG current change (%, negative = inhibition) at 1uM": 18.9}, {"smiles": "CN(CC(=O)Nc1ccc(Cl)cc1F)C1CCS(=O)(=O)C1", "note": "(stereo not shown)", "hERG current change (%, negative = inhibition) at 1uM": 2.32}, {"smiles": "Cc1cc(C)cc(OCC(=O)OCC(=O)NCCC2=CCCCC2)c1", "hERG current change (%, negative = inhibition) at 1uM": 7.97}]}]}
